{"source": "PubChem BioAssay AID485344", "about": "(National Center for Advancing Translational Sciences (NCATS), 2010)", "note": "Several values for one entry are separate records, joined by “and”; a condition that tells them apart may be missing. Equal values may be shown once. The campaign covered roughly 340,000 compounds. About 6,900 (2%) were called active. Cut-off read from the data, not from the text of the source: active = inhibition above about 30%; inactive = below that, where a call was filed. The list shows a part of the results, in another mix than the full data. Entries without a call were filed so in the source."}
{"target": "D(2) dopamine receptor (Homo sapiens) (UniProt P14416)", "sequence (P14416 whole entry, looked up)": "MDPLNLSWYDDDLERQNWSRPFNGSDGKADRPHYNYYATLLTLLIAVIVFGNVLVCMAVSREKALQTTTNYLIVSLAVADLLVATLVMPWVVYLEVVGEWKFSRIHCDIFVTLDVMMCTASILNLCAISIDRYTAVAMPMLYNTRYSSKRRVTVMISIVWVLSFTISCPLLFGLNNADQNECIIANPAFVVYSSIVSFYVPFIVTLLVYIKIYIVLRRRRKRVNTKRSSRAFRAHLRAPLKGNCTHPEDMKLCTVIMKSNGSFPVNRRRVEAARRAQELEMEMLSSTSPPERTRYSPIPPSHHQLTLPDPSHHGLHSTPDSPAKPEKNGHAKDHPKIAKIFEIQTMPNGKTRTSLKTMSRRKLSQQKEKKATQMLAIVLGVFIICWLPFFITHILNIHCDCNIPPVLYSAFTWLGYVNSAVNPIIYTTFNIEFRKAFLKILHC", "assay": "HTS Assay for Allosteric Antagonists of the Human D2 Dopamine Receptor: Primary Screen for Antagonists; note: 0% is about no effect", "details": "HEK293 TREx D2 cells, calcium flux, dopamine EC80; at 10 µM; stronger effect = higher value", "method_in_brief": "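Overnight-induced (tetracycline, 30 C) HEK293 T-REx cells carrying force-coupled D2 receive a no-wash calcium dye, then compound, then EC80 dopamine at 180 s; signals are read kinetically throughout.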"}
{"molecule": "O=C(Cn1c(-c2cccs2)cc2ccccc21)N1CCN(c2ccc(Cl)cc2)CC1", "inhibition": "17.4%"}
{"molecule": "Cc1ccc(S(=O)(=O)NC(=O)NN2CCCCCC2)cc1", "inhibition": "active: 34.4%"}
{"molecule": "CCn1c(Cc2ccccc2)nnc1SCC(=O)Nc1ccc(N2CCOCC2)c(Cl)c1", "inhibition": "active: 39.2%"}
{"molecule": "Cc1nc(-c2ccc(S(=O)(=O)N3CCN(c4cccc(C(F)(F)F)c4)CC3)cc2)co1", "inhibition": "-16.9%"}
{"molecule": "CC1CCN(C(=O)c2cc3c(=O)n(C)c4cc(Cl)ccc4c3s2)CC1", "inhibition": "-0.76%"}
{"molecule": "CCCOc1ccc(-c2nonc2NC(=O)c2ccco2)cc1OCCC", "inhibition": "-5.72%"}
{"molecule": "Cc1cc(Br)cc(C)c1NC(=O)c1sc2ncn(Cc3cccc(F)c3)c(=O)c2c1C", "inhibition": "5.44%"}
{"molecule": "Cc1ccc(S(=O)(=O)c2nnn3c2nc(NC2CCCCCC2)c2sccc23)cc1C", "inhibition": "10%"}
{"molecule": "CC(C)c1nn2c(=O)cc(COC(=O)C3CCCCC3)nc2s1", "inhibition": "-5.29%"}
{"molecule": "CC(CCN1CCN(c2ccccc2)CC1)c1ccccc1", "note": "(configuration not stated)", "inhibition": "active: 72.6%"}
{"molecule": "CCCN1CCN(C(=O)Nc2cccc(C(F)(F)F)c2)CC1", "inhibition": "active: 51.6%"}
{"molecule": "Cc1ccc(CN(Cc2ccco2)C(=O)c2ccccc2Br)o1", "inhibition": "-12.4%"}
{"molecule": "COc1ccc(OCc2cccc(C(=O)O)c2)cc1", "inhibition": "active: 34.9%"}
{"molecule": "N#C/C(=C/c1ccc(N2CCCCC2)o1)C(=O)Nc1ccc2ccccc2c1", "inhibition": "active: 47%"}
{"molecule": "CCCn1nnnc1NCc1ccc(C(C)C)cc1", "inhibition": "active: 33.9%"}
{"molecule": "Cc1cc(C(=O)Nc2c(C)cccc2C)n(-c2ccccc2)n1", "inhibition": "-4.06%"}
{"molecule": "COCCCNC(=O)c1ccc(Cn2c(SCc3ccc(F)cc3)nc3cccnc32)cc1", "inhibition": "-12.1%"}
{"molecule": "O=C(OCc1cc(=O)n2nc(-c3cccs3)sc2n1)c1cccc(F)c1", "inhibition": "11.3%"}
{"molecule": "CCOC(=O)c1sc2ncn(CC(=O)Nc3cc(Cl)ccc3C)c(=O)c2c1C", "inhibition": "-6.11%"}
{"molecule": "CCOC(=O)c1cc2c(=O)n3ccccc3nc2n(CC2CCCO2)c1=NC(=O)c1ccccc1Br", "note": "(configuration not stated)", "inhibition": "-1.32%"}
{"molecule": "Cc1cccc(NC(=O)CSc2ccc(-c3sc(-c4ccccc4)nc3C)nn2)c1C", "inhibition": "-11.8%"}
{"molecule": "CC(=O)c1ccc(N2CCN(C(=O)c3cc(S(=O)(=O)N4CCCCCC4)cn3C)CC2)cc1", "inhibition": "20.3%"}
{"molecule": "CC(=O)Nc1cccc(NC(=O)CSc2nccn2Cc2ccc3c(c2)OCO3)c1", "inhibition": "2.42%"}
{"molecule": "O=C(NCCc1csc(-c2cccc(F)c2)n1)C(=O)Nc1cc(F)ccc1F", "inhibition": "13.4%"}
{"molecule": "COc1cccc(CNC(=O)C2CCN(S(=O)(=O)c3c(C)noc3/C=C/c3cccs3)CC2)c1", "inhibition": "-0.621%"}
{"molecule": "O=C(NCc1ccccc1)c1onc(CSc2ccccc2)c1C(=O)NCC1CC1", "inhibition": "active: 38.8%"}
{"molecule": "Cc1ccc(C)c(NC(=O)Cc2coc3cc(C)cc(C)c23)c1", "inhibition": "-28.5%"}
{"molecule": "CCc1ccccc1NC(=O)Cn1nnc2sc3c(c2c1=O)CCC(C(C)(C)C)C3", "note": "(configuration not stated)", "inhibition": "-12%"}
{"molecule": "O=C(c1cc2ccc3cccnc3c2[nH]1)N1CCCCC1", "inhibition": "5.89%"}
{"molecule": "O=C(c1noc2c1CCCCC2)N1CCN(c2cccc(Cl)c2)CC1", "inhibition": "6.67%"}
{"molecule": "Cc1ccc(NC(=O)N2CC3CCCN3c3ccccc32)cc1Cl", "note": "(configuration not stated)", "inhibition": "6.05%"}
{"molecule": "CCN1CCN(c2nnc(-n3cccc3C(=O)NCc3ccccc3OC)s2)CC1", "inhibition": "13.6%"}
{"molecule": "O=C(Cn1ncc2c3ccccc3n(Cc3ccccc3F)c2c1=O)N1CCCCCC1", "inhibition": "1.92%"}
{"molecule": "COc1ccccc1-n1c(SCC(=O)N2CCOCC2)nc2cccnc21", "inhibition": "active: 59.7%"}
{"molecule": "CC(CCc1ccc(O)cc1)N1CCC(Oc2ccc(C(=O)N3CCCC3)cc2)CC1", "note": "(configuration not stated)", "inhibition": "active: 39.1%"}
{"molecule": "Cc1ccc(C(=O)Nc2nnc(S(=O)(=O)N(C)Cc3ccc(Cl)cc3)s2)cc1", "inhibition": "1.21%"}
{"molecule": "COc1cc(Nc2ncc3c(n2)CCN(Cc2ccc(OC(C)C)c(OC)c2)C3)cc(OC)c1", "inhibition": "16.7%"}
{"molecule": "COc1ccc(NC(=O)c2csnn2)cc1Cl", "inhibition": "1.35%"}
{"molecule": "CCc1nn2c(=O)cc(COC(=O)c3ccc(NC(=O)COc4ccccc4C)cc3)nc2s1", "inhibition": "2.1%"}
{"molecule": "COc1ccccc1NC(=O)CSc1oc(-c2ccco2)nc1S(=O)(=O)c1ccc(C)cc1", "inhibition": "15.1%"}
{"molecule": "CCOc1ccc(NC(=O)c2oc3ccccc3c2NC(=O)C(C)(C)C)cc1", "inhibition": "-0.92%"}
{"molecule": "CCOc1ccc2nc(N3CCCC(C(=O)Nc4ccc(OC)cc4)C3)sc2c1", "note": "(configuration not stated)", "inhibition": "-2.24%"}
{"molecule": "COc1ccc(CCNC(=O)c2c(O)nc3ccccn3c2=O)cc1OC", "inhibition": "24.3%"}
{"molecule": "O=C(CSc1nc2ccsc2c(=O)n1-c1ccc(Cl)cc1)NCc1ccc(Cl)cc1", "inhibition": "4.81%"}
{"molecule": "CC1CCN(c2nc(-c3ccc(C(C)(C)C)cc3)nc3ccccc23)CC1", "inhibition": "14.1%"}
{"molecule": "CCC(=O)N1CCc2cc(S(=O)(=O)NCCC(=O)Nc3ccc(CC)cc3)ccc21", "inhibition": "-2.8%"}
{"molecule": "CC(C)CNC(=O)Nc1cc(C(=O)NCc2ccc(C(C)C)cc2)ccc1N1CCCC1", "inhibition": "17.9%"}
{"molecule": "CCOc1ccc(NC(=O)c2cc3cc(C)ccc3n2C)cc1", "inhibition": "-11.5%"}
{"molecule": "Clc1ccc(SCCOCCN2CCc3ccccc3C2)cc1", "inhibition": "active: 49.8%"}
{"molecule": "O=C(Nc1ccccc1-c1nc2ccccc2s1)c1ccc(F)cc1", "inhibition": "-6.98%"}
{"molecule": "Clc1ccc(-c2cc3ncc4c(n3n2)-c2ccccc2OC4)cc1", "inhibition": "-1.52%"}
{"molecule": "Cc1ccc(CN2CCCn3nc(C(=O)NCc4ccc(N(C)C)cc4)cc3C2=O)cc1", "inhibition": "-26.6%"}
{"molecule": "COc1ccc(CCNc2nc3c(-c4cccc(C(F)(F)F)c4)nnn3c3ccccc23)cc1OC", "inhibition": "-1.79%"}
{"molecule": "Cc1ccc(C(=O)c2cn(Cc3ccccc3F)c3cc4c(cc3c2=O)OCCO4)cc1", "inhibition": "-17.1%"}
{"molecule": "CN(C)CCNC(=O)c1ccc(Cn2c(SCc3ccc(F)cc3)nc3cccnc32)cc1", "inhibition": "8.79%"}
{"molecule": "CCC(=O)Oc1cc(C(C)(C)C)cc2cc(-c3nc(-c4ccc(OC)cc4OC)no3)c(=O)oc12", "inhibition": "19.6%"}
{"molecule": "CCOc1ccc(N(CC(=O)Nc2cc(OC)cc(OC)c2)S(=O)(=O)c2c(C)[nH]c(=O)[nH]c2=O)cc1", "inhibition": "15.5%"}
{"molecule": "N#C/C(=C\\c1c(N2CCOCC2)nc2ccccn2c1=O)C(=O)NC1CCS(=O)(=O)C1", "note": "(configuration not stated)", "inhibition": "active: 38.1%"}
{"molecule": "O=C(c1cccs1)c1cn(CCOc2ccc(Cl)cc2)c2ccccc12", "inhibition": "-9.58%"}
{"molecule": "COc1ccc(Cl)cc1NC(=O)Cn1c(=O)oc2cc(S(=O)(=O)N3CCCCCC3)ccc21", "inhibition": "9.45%"}
{"molecule": "CC1=C(C(N)=O)C(c2cccc(O)c2)n2ncnc2N1", "note": "(configuration not stated)", "inhibition": "-2.35%"}
{"molecule": "Cc1ccc2sc(N(Cc3cccnc3)C(=O)Cc3ccccc3)nc2c1C", "inhibition": "-17.7%"}
{"molecule": "Cc1cccc(N2CCN(C(=O)CN3C(=O)COc4ccc(S(=O)(=O)N5CCC(C)CC5)cc43)CC2)c1C", "inhibition": "-8.05%"}
{"molecule": "O=S(=O)(Nc1cccc(C(F)(F)F)c1)c1ccc(NS(=O)(=O)c2ccc3c(c2)OCCO3)cc1", "inhibition": "18.5%"}
{"molecule": "COc1ccc(C(=O)Nc2cccc(-c3cn4ccsc4n3)c2)c(OC)c1", "inhibition": "3.38%"}
{"molecule": "COC(=O)c1ccccc1-c1c2ccc(=N)cc-2oc2cc(N)ccc12", "inhibition": "active: 76.9%"}
{"molecule": "Cc1ccc(NC(=O)CSc2nc3ccccc3n2CC(=O)N2CCC(C)CC2)cc1C", "inhibition": "1.32%"}
{"molecule": "Cc1csc2nc(COC(=O)c3cccc(NC(=O)c4cccc(Cl)c4)c3)cc(=O)n12", "inhibition": "-9.75%"}
{"molecule": "CCCN(c1ccc(C(C)C)cc1)S(=O)(=O)c1ccc2c(c1)n(C)c(=O)c(=O)n2C", "inhibition": "-11.7%"}
{"molecule": "CCc1nn(CC(=O)N2CCC(C)CC2)c(=O)c2cc3occc3n12", "inhibition": "13.5%"}
{"molecule": "Cc1nc2ccn(Cc3cccs3)c(=O)c2cc1C(=O)NCc1ccc(Br)cc1", "inhibition": "9.63%"}
{"molecule": "COc1ccc(OC)c(NC(=O)CSC2=Nc3ccccc3C3=NC(CCC(=O)NCc4ccccc4)C(=O)N23)c1", "note": "(configuration not stated)", "inhibition": "-12.9%"}
{"molecule": "O=C(COc1ccc(Cl)cc1)N(Cc1ccco1)Cc1ccco1", "inhibition": "11.2%"}
{"molecule": "Cc1c(C(=O)N(C)C)sc2c1c(=O)n(-c1ccc(Cl)c(Cl)c1)c(=O)n2CC(=O)C(C)(C)C", "inhibition": "6.9%"}
{"molecule": "COc1ccc(S(=O)(=O)NC2CCCC2)cc1Br", "inhibition": "active: 30.9%"}
{"molecule": "COc1ccccc1CNC(=O)CCC(=O)N1CC(C)Sc2ccccc21", "note": "(configuration not stated)", "inhibition": "14.8% and active: 31.7%"}
{"molecule": "COC(=O)c1ccc(NC(=O)CN2CCCN(Cc3ccc(Cl)cc3)S2(=O)=O)cc1", "inhibition": "-8.83%"}
{"molecule": "CCOCCCn1c(SCC(=O)Nc2cc(C)ccc2C)nc2c(oc3ccccc32)c1=O", "inhibition": "5.79%"}
{"molecule": "Cc1ccc(-c2nc3cc(NC(=O)c4cc5ccccc5o4)ccc3o2)cc1Cl", "inhibition": "-23.6%"}
{"molecule": "CCN1CCc2c(sc(NC(=O)c3ccc(S(=O)(=O)N(CCOC)CCOC)cc3)c2C(N)=O)C1", "inhibition": "15.2%"}
{"molecule": "CN(C)CCNC(=O)c1ccc(-n2c(-c3ccccc3)cc3c2CCCCC3)cc1", "inhibition": "2.13%"}
{"molecule": "CC(C)Oc1ccc(CN2CCc3nc(Nc4ccc5c(c4)OCCO5)ncc3C2)cc1", "inhibition": "-14.9%"}
{"molecule": "Cc1ccc(Sc2c(C(=O)NCc3cccc(F)c3)[nH]c3ccccc23)cc1", "inhibition": "-14.1%"}
{"molecule": "CC(NC(=O)CN1C(=O)COc2ccc(S(=O)(=O)N3CCCCCC3)cc21)c1ccccc1", "note": "(configuration not stated)", "inhibition": "26.8%"}
{"molecule": "O=C(c1sccc1Cl)N1CCN(Cc2ccc3c(c2)OCO3)CC1", "inhibition": "active: 66.6%"}
{"molecule": "COc1ccc(CCNC(=O)Cn2nnc(-c3ccc(Cl)cc3)n2)cc1OC", "inhibition": "-0.873%"}
{"molecule": "Cc1ccc(CN(Cc2ccco2)C(=O)c2ccc(Cl)cc2Cl)cc1", "inhibition": "-15.6%"}
{"molecule": "O=C(CSc1ccc(-c2cccs2)nn1)Nc1ccccc1", "inhibition": "-0.361%"}
{"molecule": "Cc1cccc(NC(=O)CSc2ncc(-c3ccc(Br)cc3)[nH]2)c1", "inhibition": "-15.3%"}
{"molecule": "COC(=O)COc1ccc2oc(=O)cc(-c3cc4cccc(OC)c4o3)c2c1", "inhibition": "active: 46%"}
{"molecule": "Cc1cccc(-c2nc(CCNC(=O)COc3ccccc3)cs2)c1", "inhibition": "-2.77%"}
{"molecule": "CC(=O)c1cccc(NC(=O)Nc2c(C)n(C)n(-c3ccccc3)c2=O)c1", "inhibition": "-12.1%"}
{"molecule": "CO/N=C(/CS(=O)(=O)Cc1ccccc1Cl)c1ccc(Cl)cc1Cl", "inhibition": "active: 43.1%"}
{"molecule": "COc1cccc(CNc2nc3ccccc3c3nc(-c4cccc(C)c4)nn23)c1", "inhibition": "7.29%"}
{"molecule": "COc1ccc(-c2cc(-c3ccccc3)nc(SCC(=O)Nc3ccccc3C)c2C#N)cc1", "inhibition": "-3.06%"}
{"molecule": "Cc1cccc(C)c1NC(=O)N1C2CCCC1CC(NC(=O)C(C)(C)C)C2", "note": "(configuration not stated)", "inhibition": "active: 37.5%"}
{"molecule": "Cn1c(C(=O)NCCN2CCc3ccccc3C2)cc2c(=O)n(C)c3ccccc3c21", "inhibition": "active: 48%"}
